Reference: article PMC9911399, “Two distinct binding modes provide the RNA-binding protein RbFox with extraordinary sequence specificity”
Numbering of substitutions follows the chain as printed; changes in the protein carry UniProt numbers. Some of the results follow.

B1: AUUUAGC (DNA:RNA)
RNA: GGGAGACCGGAAUUCAGAUUGUCCAUUUAGCUUAAAUCCCGUCGUAGCCACCA
DNA 1: CAATCTGAATTCCGGTCTCCC
DNA 2: TGGTGGCTACGACGGGATT
B2: GGGCAAA (DNA:RNA)
RNA: B1 RNA with A25G, U26G, U27G, U28C, G30A, C31A
DNA 1: CAATCTGAATTCCGGTCTCCC
DNA 2: TGGTGGCTACGACGGGATT
B3: GCGAACU (DNA:RNA)
RNA: B1 RNA with A25G, U26C, U27G, U28A, G30C, C31U
DNA 1: CAATCTGAATTCCGGTCTCCC
DNA 2: TGGTGGCTACGACGGGATT
B4: CAAAGAA (DNA:RNA)
RNA: GGGAGACCGGAAUUCAGAUUGUCCCAAAGAAUUAAAUCCCGUCGUAGCCACCA
DNA 1: CAATCTGAATTCCGGTCTCCC
DNA 2: TGGTGGCTACGACGGGATT
B5: AACUGUU (DNA:RNA)
RNA: B1 RNA with U26A, U27C, A29G, G30U, C31U
DNA 1: CAATCTGAATTCCGGTCTCCC
DNA 2: TGGTGGCTACGACGGGATT
B6: ACUAGGG (DNA:RNA)
RNA: B1 RNA with U26C, U28A, A29G, C31G
DNA 1: CAATCTGAATTCCGGTCTCCC
DNA 2: TGGTGGCTACGACGGGATT
B7: GCCCCUG (DNA:RNA)
RNA: GGGAGACCGGAAUUCAGAUUGUCCGCCCCUGUUAAAUCCCGUCGUAGCCACCA
DNA 1: CAATCTGAATTCCGGTCTCCC
DNA 2: TGGTGGCTACGACGGGATT
B8: AGUAUAG (DNA:RNA)
RNA: B1 RNA with U26G, U28A, A29U, G30A, C31G
DNA 1: CAATCTGAATTCCGGTCTCCC
DNA 2: TGGTGGCTACGACGGGATT
B9: UAAGGAC (DNA:RNA)
RNA: B4 RNA with C25U, A28G, A31C
DNA 1: CAATCTGAATTCCGGTCTCCC
DNA 2: TGGTGGCTACGACGGGATT
B10: CGUCACG (DNA:RNA)
RNA: B1 RNA with A25C, U26G, U28C, G30C, C31G
DNA 1: CAATCTGAATTCCGGTCTCCC
DNA 2: TGGTGGCTACGACGGGATT
B11: CCCCCAU (DNA:RNA)
RNA: B7 RNA with G25C, U30A, G31U
DNA 1: CAATCTGAATTCCGGTCTCCC
DNA 2: TGGTGGCTACGACGGGATT
B12: CAUAAUA (DNA:RNA)
RNA: B4 RNA with A27U, G29A, A30U
DNA 1: CAATCTGAATTCCGGTCTCCC
DNA 2: TGGTGGCTACGACGGGATT
B13: GCCCGAG (DNA:RNA)
RNA: B7 RNA with C29G, U30A
DNA 1: CAATCTGAATTCCGGTCTCCC
DNA 2: TGGTGGCTACGACGGGATT
B14: UAGGGGC (DNA:RNA)
RNA: B1 RNA with A25U, U26A, U27G, U28G, A29G
DNA 1: CAATCTGAATTCCGGTCTCCC
DNA 2: TGGTGGCTACGACGGGATT
B15: CAGGCUU (DNA:RNA)
RNA: B4 RNA with A27G, A28G, G29C, A30U, A31U
DNA 1: CAATCTGAATTCCGGTCTCCC
DNA 2: TGGTGGCTACGACGGGATT
B16: AUAAUUA (DNA:RNA)
RNA: B4 RNA with C25A, A26U, G29U, A30U
DNA 1: CAATCTGAATTCCGGTCTCCC
DNA 2: TGGTGGCTACGACGGGATT
B17: ACAAGUU (DNA:RNA)
RNA: B4 RNA with C25A, A26C, A30U, A31U
DNA 1: CAATCTGAATTCCGGTCTCCC
DNA 2: TGGTGGCTACGACGGGATT
B18: GUGGUGU (DNA:RNA)
RNA: B1 RNA with A25G, U27G, U28G, A29U, C31U
DNA 1: CAATCTGAATTCCGGTCTCCC
DNA 2: TGGTGGCTACGACGGGATT
B19: AUAGAUG (DNA:RNA)
RNA: B1 RNA with U27A, U28G, G30U, C31G
DNA 1: CAATCTGAATTCCGGTCTCCC
DNA 2: TGGTGGCTACGACGGGATT
B20: CCACCAA (DNA:RNA)
RNA: B4 RNA with A26C, A28C, G29C
DNA 1: CAATCTGAATTCCGGTCTCCC
DNA 2: TGGTGGCTACGACGGGATT
B21: AGCCAUG (DNA:RNA)
RNA: B7 RNA with G25A, C26G, C29A
DNA 1: CAATCTGAATTCCGGTCTCCC
DNA 2: TGGTGGCTACGACGGGATT
B22: CGUCCCC (DNA:RNA)
RNA: B1 RNA with A25C, U26G, U28C, A29C, G30C
DNA 1: CAATCTGAATTCCGGTCTCCC
DNA 2: TGGTGGCTACGACGGGATT
B23: UGCAACC (DNA:RNA)
RNA: B1 RNA with A25U, U26G, U27C, U28A, G30C
DNA 1: CAATCTGAATTCCGGTCTCCC
DNA 2: TGGTGGCTACGACGGGATT
B24: AUAGUGG (DNA:RNA)
RNA: B1 RNA with U27A, U28G, A29U, C31G
DNA 1: CAATCTGAATTCCGGTCTCCC
DNA 2: TGGTGGCTACGACGGGATT
B25: UUCCACG (DNA:RNA)
RNA: B7 RNA with G25U, C26U, C29A, U30C
DNA 1: CAATCTGAATTCCGGTCTCCC
DNA 2: TGGTGGCTACGACGGGATT
B26: CUCUCUG (DNA:RNA)
RNA: B7 RNA with G25C, C26U, C28U
DNA 1: CAATCTGAATTCCGGTCTCCC
DNA 2: TGGTGGCTACGACGGGATT
B27: GAAAUCA (DNA:RNA)
RNA: B4 RNA with C25G, G29U, A30C
DNA 1: CAATCTGAATTCCGGTCTCCC
DNA 2: TGGTGGCTACGACGGGATT
B28: CGUAAGA (DNA:RNA)
RNA: B1 RNA with A25C, U26G, U28A, C31A
DNA 1: CAATCTGAATTCCGGTCTCCC
DNA 2: TGGTGGCTACGACGGGATT
B29: UAAGGUC (DNA:RNA)
RNA: B4 RNA with C25U, A28G, A30U, A31C
DNA 1: CAATCTGAATTCCGGTCTCCC
DNA 2: TGGTGGCTACGACGGGATT
B30: GCGGUCG (DNA:RNA)
RNA: B7 RNA with C27G, C28G, C29U, U30C
DNA 1: CAATCTGAATTCCGGTCTCCC
DNA 2: TGGTGGCTACGACGGGATT
B31: UUGGUCA (DNA:RNA)
RNA: B1 RNA with A25U, U27G, U28G, A29U, G30C, C31A
DNA 1: CAATCTGAATTCCGGTCTCCC
DNA 2: TGGTGGCTACGACGGGATT

Target: T1, RBFOX1 RRM RbFoxmut (Fox-RRM*) (Homo sapiens, UniProt Q9NWB1 109-208, R118D;E147R;N151S;E152T)
T1 sequence: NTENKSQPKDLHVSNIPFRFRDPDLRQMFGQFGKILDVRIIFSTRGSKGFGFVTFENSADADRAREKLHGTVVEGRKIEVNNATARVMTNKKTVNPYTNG
Test: EMSA; HiTS-Eq, 1 nM pool, 10 min; buffer printed only for the single-RNA assays: 10 mM Tris pH 7.5, 150 mM NaCl, 3.4 mM EDTA, 0.001% NP-40, 30 C
Conditions: tags: His6 N-terminal (pET28a); label: 5' 32P
How it was run: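 A pool of RNA with 7 randomized nucleotides, 5′-radiolabelled and with DNA-annealed flanks, was equilibrated at 1 nM for 10 min in 50 µL with purified RbFox RRM, wild type or mutant, across increasing protein concentrations. Free RNA was separated by 8% native PAGE, excised, reverse-transcribed, barcoded by PCR and sequenced. Relative association constants were obtained from read-count changes of each RNA species versus the control reaction and normalised to the cognate motif.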

| Binder | binding signal |
| --- | --- |
| B1 | 0.134 KA relative to UGCAUGU |
| B2 | 0.0833 KA relative to UGCAUGU |
| B3 | 0.0629 KA relative to UGCAUGU |
| B4 | 0.0909 KA relative to UGCAUGU |
| B5 | 0.097 KA relative to UGCAUGU |
| B6 | 0.0967 KA relative to UGCAUGU |
| B7 | 0.0977 KA relative to UGCAUGU |
| B8 | 0.112 KA relative to UGCAUGU |
| B9 | 0.0756 KA relative to UGCAUGU |
| B10 | 0.0954 KA relative to UGCAUGU |
| B11 | 0.0698 KA relative to UGCAUGU |
| B12 | 0.122 KA relative to UGCAUGU |
| B13 | 0.101 KA relative to UGCAUGU |
| B14 | 0.0842 KA relative to UGCAUGU |
| B15 | 0.075 KA relative to UGCAUGU |
| B16 | 0.111 KA relative to UGCAUGU |

| Binder | binding signal |
| --- | --- |
| B17 | 0.0963 KA relative to UGCAUGU |
| B18 | 0.208 KA relative to UGCAUGU |
| B19 | 0.141 KA relative to UGCAUGU |
| B20 | 0.108 KA relative to UGCAUGU |
| B21 | 0.163 KA relative to UGCAUGU |
| B22 | 0.048 KA relative to UGCAUGU |
| B23 | 0.0791 KA relative to UGCAUGU |
| B24 | 0.107 KA relative to UGCAUGU |
| B25 | 0.0996 KA relative to UGCAUGU |
| B26 | 0.0547 KA relative to UGCAUGU |
| B27 | 0.0661 KA relative to UGCAUGU |
| B28 | 0.0927 KA relative to UGCAUGU |
| B29 | 0.0829 KA relative to UGCAUGU |
| B30 | 0.17 KA relative to UGCAUGU |
| B31 | 0.14 KA relative to UGCAUGU |
